According to publication PMC12820563:
The other results are listed elsewhere or left out. The list includes weakly bound sequences.

These sequences were tested against T1, MBP-FoxP3dN (UniProt Q99JB6) (assay: PD-seq (MBP pull-down with sequencing)). Conditions: 20 mM Tris-HCl pH 7.5, 100 mM NaCl, 1.5 mM MgCl2, 0.4 uM protein, 0.1 uM dsDNA library, 30 min, room temperature, amylose pull-down; high values mean tight binding; double strand, one strand shown.
T1 sequence: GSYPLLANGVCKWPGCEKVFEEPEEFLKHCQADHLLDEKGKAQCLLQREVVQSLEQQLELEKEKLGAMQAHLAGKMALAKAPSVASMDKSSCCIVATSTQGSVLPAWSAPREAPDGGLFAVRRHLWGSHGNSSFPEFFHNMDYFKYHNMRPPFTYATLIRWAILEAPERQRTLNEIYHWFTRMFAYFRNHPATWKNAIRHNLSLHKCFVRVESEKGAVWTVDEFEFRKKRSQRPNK

For “GATGATTGTTCTCCCAGCTGATGAATTGACTAGCTCGAGTAAACAAATTTTCCTAATCTTTCTGTTCAAGCGCCATCTAC”, which binding signal (RPM ratio (pull-down/input)) is on record?
Its binding signal (RPM ratio (pull-down/input)) is 0.298.

For “GATGATTGTTCTCCCAGCTGATGAATTCTAGTTATCGAGTAAACAAATTTTCCTAATCTTTCTGTTCAAGCGCCATCTAC”, which binding signal (RPM ratio (pull-down/input)) is on record?
The binding signal (RPM ratio (pull-down/input)) was 1.05.

“GATGATTGTTCTCCCAGCTGATGAATTTCGTTTGTCGAGTAAACAAATTTTCCTAATCTTTCTGTTCAAGCGCCATCTAC” was tested. Which binding signal (RPM ratio (pull-down/input)) did it give?
Its binding signal (RPM ratio (pull-down/input)) is 3.81.

For “GATGATTGTTCTCCCAGCTGATGAATTGAGCCCTTCGAGTAAACAAATTTTCCTAATCTTTCTGTTCAAGCGCCATCTAC”, which binding signal (RPM ratio (pull-down/input)) is on record?
The binding signal (RPM ratio (pull-down/input)) was 0.799.

Which binding signal (RPM ratio (pull-down/input)) does the source give for “GATGATTGTTCTCCCAGCTGATGAATTTTATAGTTCGAGTAAACAAATTTTCCTAATCTTTCTGTTCAAGCGCCATCTAC” here?
Its binding signal (RPM ratio (pull-down/input)) is 0.933.

With “GATGATTGTTCTCCCAGCTGATGAATTATCGACTTCGAGTAAACAAATTTTCCTAATCTTTCTGTTCAAGCGCCATCTAC” as the sequence, how does the binding signal (RPM ratio (pull-down/input)) read?
Its binding signal (RPM ratio (pull-down/input)) is 0.534.

Which binding signal (RPM ratio (pull-down/input)) does the source give for “GATGATTGTTCTCCCAGCTGATGAATTTGAGAACTCGAGTAAACAAATTTTCCTAATCTTTCTGTTCAAGCGCCATCTAC” here?
The binding signal (RPM ratio (pull-down/input)) was 0.225.

With “GATGATTGTTCTCCCAGCTGATGAATTAGACAGTTCGAGTAAACAAATTTTCCTAATCTTTCTGTTCAAGCGCCATCTAC” as the sequence, how does the binding signal (RPM ratio (pull-down/input)) read?
Its binding signal (RPM ratio (pull-down/input)) is 0.365.

“GATGATTGTTCTCCCAGCTGATGAATTCCGGATGTCGAGTAAACAAATTTTCCTAATCTTTCTGTTCAAGCGCCATCTAC” was tested. Which binding signal (RPM ratio (pull-down/input)) did it give?
Its binding signal (RPM ratio (pull-down/input)) is 0.333.

Which binding signal (RPM ratio (pull-down/input)) does the source give for “GATGATTGTTCTCCCAGCTGATGAATTGGCTATGTCGAGTAAACAAATTTTCCTAATCTTTCTGTTCAAGCGCCATCTAC” here?
Its binding signal (RPM ratio (pull-down/input)) is 0.789.

For “GATGATTGTTCTCCCAGCTGATGAATTGGCCGTGTCGAGTAAACAAATTTTCCTAATCTTTCTGTTCAAGCGCCATCTAC”, which binding signal (RPM ratio (pull-down/input)) is on record?
The binding signal (RPM ratio (pull-down/input)) was 0.363.

“GATGATTGTTCTCCCAGCTGATGAATTTTGAGAATCGAGTAAACAAATTTTCCTAATCTTTCTGTTCAAGCGCCATCTAC” was tested. Which binding signal (RPM ratio (pull-down/input)) did it give?
Its binding signal (RPM ratio (pull-down/input)) is 0.279.

How did the binding signal (RPM ratio (pull-down/input)) turn out when “GATGATTGTTCTCCCAGCTGATGAATTCGATCAATCGAGTAAACAAATTTTCCTAATCTTTCTGTTCAAGCGCCATCTAC” was run?
Its binding signal (RPM ratio (pull-down/input)) is 0.281.

How did the binding signal (RPM ratio (pull-down/input)) turn out when “GATGATTGTTCTCCCAGCTGATGAATTTCAGGTTTCGAGTAAACAAATTTTCCTAATCTTTCTGTTCAAGCGCCATCTAC” was run?
The binding signal (RPM ratio (pull-down/input)) was 0.375.

Which binding signal (RPM ratio (pull-down/input)) does the source give for “GATGATTGTTCTCCCAGCTGATGAATTAAAGAATTCGAGTAAACAAATTTTCCTAATCTTTCTGTTCAAGCGCCATCTAC” here?
The binding signal (RPM ratio (pull-down/input)) was 0.677.

With “GATGATTGTTCTCCCAGCTGATGAATTTCCGTACTCGAGTAAACAAATTTTCCTAATCTTTCTGTTCAAGCGCCATCTAC” as the sequence, how does the binding signal (RPM ratio (pull-down/input)) read?
The binding signal (RPM ratio (pull-down/input)) was 0.33.

“GATGATTGTTCTCCCAGCTGATGAATTGTGAACTTCGAGTAAACAAATTTTCCTAATCTTTCTGTTCAAGCGCCATCTAC” was tested. Which binding signal (RPM ratio (pull-down/input)) did it give?
The binding signal (RPM ratio (pull-down/input)) was 0.508.

How did the binding signal (RPM ratio (pull-down/input)) turn out when “GATGATTGTTCTCCCAGCTGATGAATTGATGACCTCGAGTAAACAAATTTTCCTAATCTTTCTGTTCAAGCGCCATCTAC” was run?
The binding signal (RPM ratio (pull-down/input)) was 0.526.
